# Measured values: PubChem BioAssay AID463173 (ICCB-Longwood Screening Facility, Harvard Medical School, 2010)
# In all, about 52,000 compounds went through this assay and about 4,300 (8.3%) were called active. No stated cut-off is given here; in the data, active means survival mostly below about 52% (no sharp cut-off); inactive means mostly above about 56%. The list shows a part of the results.
# System: DeltatarO mutant
# Assay: S. aureus survival, RN4220 and DeltatarO strains – OD600, teichoic acid synthesis inhibitors, primary screen (AID 463173)
# Conditions: S. aureus RN4220 wild type/DeltatarO growth, OD600, 18 h, stronger effect = lower value, screened at 18.75 µg/mL (by protocol)
row,SMILES,survival
1,O=C(O)C1C2C=CC(O2)C1C(=O)Nc1ccccc1 (stereo unspecified),inactive: 98%
2,NS(=O)(=O)c1ccc(NC(=O)c2cc(-c3cccs3)nc3ccccc23)cc1,inactive: 118%
3,Cc1ccc(NC(=O)CCCc2nnc3n(C)c(=O)c4sccc4n23)cc1C,inactive: 96%
4,CC1(C(=O)NN)NC2(CCCCC2)Cc2ccccc21 (stereo unspecified),inactive: 103%
5,COCC(=O)N1CCN(c2ncnc3c(-c4ccc(Cl)cc4)nsc23)CC1,inactive: 90%
6,COC(=O)Nc1c(-c2ccccc2)nc2ccc(C)cn12,inactive: 74%
7,COc1ccc(CCNS(=O)(=O)c2ccc3c(c2)c(=O)n(C)c(=O)n3C)cc1OC,inactive: 85%
8,NC(=O)CSc1nc2ccc(NC(=O)COc3ccccc3)cc2s1,inactive: 79%
9,CCCn1c(=N)c(C(=O)NC2CCCC2)cc2c(=O)n3cc(C)ccc3nc21,inactive: 60%
10,CC1CCC(NC(=O)c2ccc3c(c2)N(Cc2ccccc2F)C(=O)c2ccccc2S3)CC1 (stereo unspecified),inactive: 83%
11,O=C(NCC1CCCO1)NC12CC3CC(CC(C3)C1)C2 (stereo unspecified),inactive: 78%
12,CC1CCCC(C)N1C(=O)CSc1nnc(-c2ccccc2)o1 (stereo unspecified),inactive: 108%
13,c1ccc(-c2cc(-c3ccccc3)c3c(n2)-c2ccccc2OC3)cc1,inactive: 50%
14,CC1CCN(S(=O)(=O)c2ccc3c(c2)N(CC(=O)NCc2ccccc2Cl)C(=O)CS3)CC1,inactive: 71%
15,COc1nc(NC23CC4CC(CC(C4)C2)C3)nc(OC)n1,inactive: 107%
16,CN(C)c1cc[n+](CC(=O)N2CCCc3ccccc32)cc1,inactive: 85%
17,CCOc1ccc(C(=O)NCCc2sc(-c3ccc(C)cc3)nc2C)cc1,active: -1%
18,COc1cc(Nc2nc(SCc3ccccc3F)nc3ccccc23)cc(OC)c1,inactive: 118%
19,Cc1ccc(CCNC(=O)c2ccc(CS(=O)(=O)c3ccc(Br)cc3)o2)cc1,inactive: 125%
20,CCOc1ccccc1NC(=O)CSc1c(C)cnc2c1c(=O)n(C)c(=O)n2C,inactive: 89%
21,CCCCNc1ccc(-c2nc(-c3ccccc3)no2)cc1[N+](=O)[O-],inactive: 72%
22,O=C(Nc1cccc(C(F)(F)F)c1)C1CCCN(S(=O)(=O)c2cccc3nsnc23)C1 (stereo unspecified),inactive: 64%
23,COC(=O)C(=NNc1cccc(Cl)c1)C(=O)OC,inactive: 75%

row,SMILES,survival
1,O=S(=O)(Nc1ccc(F)c(C(F)(F)F)c1)c1ccc(N2CCCCS2(=O)=O)cc1,inactive: 124%
2,COc1ccc(C2C(=O)N(C3CCC(C)CC3)CC(=O)N2Cc2ccc(C)cc2)cc1OC (stereo unspecified),inactive: 86%
3,Cc1ccc(C#N)c(=O)[nH]1,inactive: 78%
4,Cc1cc(C)cc(NC(=O)Cn2nnc(C(=O)NCCc3ccccc3)c2N)c1,inactive: 74%
5,COc1ccc(OC)c(CNS(=O)(=O)c2c(C(=O)N3CCC(C)CC3)c(C)n(C)c2C)c1,inactive: 60%
6,CC1=C(C(=O)Nc2cccc(C)c2C)C2(CCCCC2)OC1=O,inactive: 89%
7,CC1(C)NC(=O)N(CC(O)CNC23CC4CC(CC(C4)C2)C3)C1=O (stereo unspecified),inactive: 61%
8,CCOCCCNC(=O)C(c1ccc(OC)cc1)N(Cc1cccs1)C(=O)c1ccccc1O (stereo unspecified),inactive: 50%
9,COc1ccc(CCNC(=O)c2cnc3sc(N4CCCCCC4)nn3c2=O)cc1OC,inactive: 89%
10,CCOc1ccc(C(=O)NC2CCN(C(=O)NCc3ccccc3)CC2)cc1,inactive: 84%
11,COc1ccccc1N1CCN(CCCNC(=O)c2cnn(-c3ccccc3Cl)c2C2CCN(C(=O)OC(C)(C)C)CC2)CC1,inactive: 71%
12,CC(C)NC(=O)CSc1nc2ccccc2nc1N1CCCCC1,active: -26%
13,Cc1ccc(Sc2ccc(N3CCCC(C(=O)Nc4ccc(Cl)cc4)C3)nn2)cc1 (stereo unspecified),inactive: 63%
14,Cc1ccc(C(c2nnnn2C2CCCC2)N2CCc3ccccc32)cc1 (stereo unspecified),inactive: 100%
15,CC1CCN(CC(=O)N2CCCc3c2c(=O)oc2ccc(OCc4ccccc4)cc32)CC1,inactive: 98%
16,COc1ccc(Cn2nnnc2CN(Cc2cccs2)Cc2cc3ccc(OC)cc3[nH]c2=O)cc1,inactive: 95%
17,CC(=O)c1ccc(NC(=O)CN(C)S(=O)(=O)c2cc3c(cc2C)NC(=O)CO3)cc1,inactive: 84%
18,CC1(C(=O)Nc2cccc(C(F)(F)F)c2)Cc2ccccc2C(=O)O1 (stereo unspecified),inactive: 96%
19,COc1ccc(C(c2c(C)n(C)n(-c3ccccc3)c2=O)c2c(C)n(C)n(-c3ccccc3)c2=O)cc1O,inactive: 84%
20,COc1cc(OC)c(NC(=O)Nc2nnc(N(C)C3CCCCC3)s2)cc1Cl,active: 23%
21,CCOc1cccc2sc(N(Cc3cccnc3)C(=O)c3ccco3)nc12,inactive: 77%
22,Cc1ccc(N2CC(NC(=O)Cc3cccs3)CC2=O)cc1 (stereo unspecified),active: 8%
23,COc1ccc(-c2cc3c(=O)n(CC(=O)Nc4ccccc4C(F)(F)F)ccn3n2)cc1OC,inactive: 86%

row,SMILES,survival
1,CCCc1nc(N)c(C#N)c(-c2ccc(F)cc2)c1CC,inactive: 66%
2,CCc1cc(=O)oc2cc(C)c3c(-c4ccc(F)cc4)coc3c12,active: 33%
3,CCCN(CCC)CCCNC(=O)c1cc2c(-c3ccc(Cl)cc3)nn(C)c2s1,inactive: 129%
4,Cc1cccc(NC(=O)CSc2nc3c(oc4ccccc43)c(=O)n2-c2ccccc2)c1C,inactive: 79%
5,Cc1ccc(S(=O)(=O)N2CCC(C(=O)Nc3cc(C)ccc3C)CC2)cc1,inactive: 69%
6,Cc1ccccc1CN1C(=O)c2ccccc2Sc2ccc(C(=O)N3CCOCC3)cc21,inactive: 83%
7,COc1ccccc1-c1c(C(F)(F)F)oc2c(CN3CCCCC3C)c(O)ccc2c1=O (stereo unspecified),inactive: 62%
8,O=C(Nc1ccc2oc(-c3cccc4c(Br)cccc34)nc2c1)c1ccc(Br)cc1,inactive: 71%
9,CC(=O)c1[nH]c(C)c(C(=O)NCc2ccc(Cl)cc2)c1C,inactive: 100%
10,COc1cc(C)c(S(=O)(=O)Nc2cccc(-c3ccc(N4CCCC4)nn3)c2)cc1C,inactive: 83%
11,CCN1C(=O)c2ccccc2S(=O)c2ccc(C(=O)N3CCN(c4ccc(F)cc4)CC3)cc21 (stereo unspecified),inactive: 75%
12,Cc1cccc(-c2nc(-c3ccc4c(c3)[nH]c(=O)n4C)no2)c1,inactive: 89%
13,Cc1cccc2cc(C(c3nnnn3CCc3ccccc3)N3CCN(c4nc5ccccc5s4)CC3)c(=O)[nH]c12 (stereo unspecified),inactive: 93%
14,O=C(NC1CCCC1)c1ccc2c(c1)OCO2,inactive: 69%
15,COc1ccccc1CCNC(=O)Cc1c(C)c2c(O)cc(C)cc2oc1=O,inactive: 55%
16,COC(=O)c1ccc([C@@H]2Nc3c(cccc3C(F)(F)F)[C@@H]3C=CC[C@@H]32)cc1,active: -3%
17,COc1cc(-c2cc3n(C)c(C)c(CCC(=O)Nc4ccc(F)cc4)c(=O)n3n2)cc(OC)c1OC,inactive: 70%
18,COc1ccc(Cn2c(=O)c3oc4ccccc4c3n(Cc3ccccc3)c2=O)cc1,inactive: 82%
19,Cc1ccc(OCCSc2nc(-c3cccs3)nc3cc(=O)[nH]n23)cc1Cl,inactive: 112%
20,O=C(CSc1c2c(nc3ccccc13)CCC2)Nc1ccc(F)cc1F,inactive: 69%
21,CC(CNC(=O)c1sc2ncccc2c1-n1cccc1)c1ccccc1 (stereo unspecified),inactive: 102%
22,CC(C)(Oc1ccc(Cl)cc1)C(=O)Nc1cccc(-c2cn3cccnc3n2)c1,inactive: 89%
23,Cc1nc2scc(C)n2c(=O)c1S(=O)(=O)Nc1ccc(N2CCN(C(=O)C(C)C)CC2)cc1,inactive: 156%

row,SMILES,survival
1,CC1(C)CC(=O)c2cc(C(=O)Nc3ccc(Cl)cc3)c(=O)[nH]c2C1,inactive: 88%
2,Cn1c(=O)c2c(ncn2C/C=C/c2ccccc2)n(C)c1=O,inactive: 69%
3,COc1ccc(NC(=O)CCN2CCOCC2)cc1,inactive: 98%
4,Cc1ccc(NC(=O)CSc2nc3c(c(=O)[nH]2)CN(Cc2ccccc2)CC3)cc1Cl,inactive: 70%
5,Nc1nc2nc(-c3ccc(Cl)cc3)cc(C(F)(F)F)n2n1,inactive: 182%
6,COC(=O)c1c(NC(=O)C2c3ccccc3Oc3ccccc32)sc2c1CCC(C)C2 (stereo unspecified),inactive: 56%
7,Nc1nonc1-c1nc2ccccc2n1Cc1ccc(Br)cc1,inactive: 84%
8,O=C1OC(Nc2ccccn2)c2ccccc21 (stereo unspecified),inactive: 42%
9,Cc1ccc(CSC2=Nc3ccccc3C3=NC(CCC(=O)NCCc4ccccc4)C(=O)N23)cc1 (stereo unspecified),inactive: 80%
10,COC(=O)c1cc2occc2n1Cc1ccc(F)cc1Cl,active: 30%
11,Cc1ccc(NC(=O)CN2C(=O)CSc3ccc(S(=O)(=O)N(C)C)cc32)cc1C,inactive: 69%
12,O=c1[nH]c2cc3c(cc2cc1CN(Cc1nnnn1CCc1ccccc1)C1CCCC1)OCCO3,inactive: 65%
13,Cc1ccc(-c2nn(CCC(=O)Nc3ccc(Cl)c(Cl)c3)c(=O)c3ccccc23)cc1,inactive: 53%
14,CCOc1cc(C2C(C(N)=O)=C(C)Nc3ncnn32)cc(Br)c1O (stereo unspecified),inactive: 81%
15,CN(C)CCNc1ccc(Cl)nn1,inactive: 96%
16,Cc1ccc(C(=O)NCCSc2c(C)[nH]c3ccccc23)cc1C,inactive: 55%
17,CCOC(=O)C1CCN(C(=O)c2ccc(C)cc2)CC1,inactive: 97%
18,Cc1ccc2c(c1)-c1onc(C(=O)N3CCN(c4cc(C)ccc4C)CC3)c1CO2,inactive: 66%
19,Cc1cc(C)n(-c2nc3cc(Cl)ccc3nc2N2CCN(c3cccc(C)c3C)CC2)n1,active: -6%
20,N#Cc1cccc(NC(=O)Nc2cccn(Cc3ccccc3)c2=O)c1,inactive: 81%
21,COc1ccccc1CNS(=O)(=O)c1c(C(=O)N2CCC(C)CC2)c(C)n(C)c1C,inactive: 100%
22,Cc1ccc(CCNC(=O)Cn2ncc3c([nH]c4ccccc43)c2=O)cc1,inactive: 102%
